Patent publication US12246066 (AGENUS, dated 2025)

Target: T1, human CTLA-4 on Jurkat cells engineered to constitutively express human CTLA-4 (Promega) (human, UniProt P16410 36-223)
T1 construct: Bought cell line; also called CTLA-4-expressing cells; cells expressing human CTLA-4
Assay: flow cytometry, 5 µg/ml antibody on Jurkat cells expressing human CTLA-4
Experimental: The binding of anti-CTLA-4 antibodies AGEN1884.H3 (IgG_1 S239D/I332E), AGEN1884.H3 (IgG_1 S239D/A330L/I332E), and AGEN1884.H3 (IgG_1L235V/F243L/R292P/Y300L/P396L) to CTLA-4-expressing cells was characterized similarly as described above. Briefly, Jurkat cells engineered to express human CTLA-4 (Promega) were stained first with 5 μg/ml of an anti-CTLA-4 antibody or an isotype control antibody and then with an anti-human IgG secondary antibody (Thermo Scientific, Cat #31529). The cells were analyzed using BD FACS Canto II.

binding result: binds
B1: AGEN1884.H3 (IgG1 S239D/I332E) (antibody)
heavy: EVQLVESGGGLVKPGGSLRLSCAASGFTFSSYSMNWVRQAPGKGLEWVSSISSSSSYIYYAESVKGRFTISRDNAKNSLYLQMNSLRAEDTAVYYCARVGLFGPFDIWGQGTLVTVSSASTKGPSVFPLAPSSKSTSGGTAALGCLVKDYFPEPVTVSWNSGALTSGVHTFPAVLQSSGLYSLSSVVTVPSSSLGTQTYICNVNHKPSNTKVDKRV[human IgG1 Fc with changes left out]
light: EIVLTQSPGTLSLSPGERATLSCRASQSVSRYLGWYQQKPGQAPRLLIYGASTRATGIPDRFSGSGSGTDFTLTITRLEPEDFAVYYCQQYGSSPWTFGQGTKVEIKRTVAAPSVFIFPPSDEQLKSGTASVVCLLNNFYPREAKVQWKVDNALQSGNSQESVTEQDSKDSTYSLSSTLTLSKADYEKHKVYACEVTHQGLSSPVTKSFNRGEC
